Laboratory results taken from PMC12481580 (Journal of Medicinal Chemistry, 2025).

What was measured:
[1] = stability in human plasma/PBS 1:2 v/v (37 °C); type: in vitro ADME; conditions: for proteolytic stability in human plasma (in words): over 48 h; for remaining at 2 h, 80 μM: read-out: % intact compound in plasma after 2 h; for remaining at 6 h, 80 μM: read-out: % intact compound in plasma after 6 h; for remaining at 24 h, 80 μM: read-out: % intact compound in plasma after 24 h; for remaining at 48 h, 80 μM: read-out: % intact compound in plasma after 48 h; for half-life: in vitro, read-out: t 1/2 in human plasma
[2] = biological target: neurotensin receptor 1 (NTS1R), endogenous in HT-29 colon carcinoma cells (human (endogenous in HT-29)) (UniProt P30989); test: radioligand binding; competition with [^3H]UR-MK300 at intact HT-29 cells, 23 ± 1 °C, DPBS with 1% BSA and 0.1 mg/mL bacitracin; pIC50 converted to pKi (Cheng-Prusoff)
[3] = biological target: T1, human NTS2R in membranes of HEK293T-hNTS2R cells (human, UniProt O95665 1-410); test: radioligand binding; competition with 5 nM [^3H]UR-MK300 at membranes of HEK293T-hNTS2R cells, protein 135 μg/mL; conditions: one partner purified
T1 construct: Used as membrane preparations, not intact cells; source: HEK293T-hNTS2R cells, membrane preparations

[4] = human, human blood plasma/PBS 1:2 v/v, human plasma/PBS 1:2 v/v, 37 °C, 80 μM
[5] = human, human blood plasma/PBS 1:2 v/v, human plasma/PBS 1:2 v/v, 37 °C, 80 μM, 48 h

Molecule	proteolytic stability in human plasma (in words) ([1]; human plasma, 37 °C)	remaining at 2 h, 80 μM [1, 4] [%]	remaining at 6 h, 80 μM [1, 4] [%]	remaining at 24 h, 80 μM [1, 4] [%]	remaining at 48 h, 80 μM [1, 5] [%]	other results
CC[C@H](C)[C@H](NC(=O)[C@@H](NC(=O)[C@@H]1CCCN1C(=O)[C@H](CCCNC(=N)N)NC(=O)[C@H](CCCNC(N)=NC(=O)NCCCCN)NC)C(C)(C)c1ccc(O)cc1)C(=O)N[C@@H](C[Si](C)(C)C)C(=O)O [17a, N ^α-Methyl-N ^ω-[(4-aminobutyl)aminocarbonyl]Arg-Arg-Pro-β,β-dimethyl-L-Tyr-Ile-β-trimethylsilyl-Ala Tetrakis(hydrotrifluoroacetate)]	high proteolytic stability	> 99	> 99	> 99	> 99	
CC[C@H](C)[C@H](NC(=O)[C@H](Cc1ccc(O)cc1)NC(=O)[C@@H]1CCCN1C(=O)[C@H](CCCNC(=N)N)NC(=O)[C@@H](N)CCCNC(=N)N)C(=O)N[C@@H](CC(C)C)C(=O)O [NT(8–13), reference compound]	very low plasma stability	< 1	< 1			remaining at 10 min, 80 μM ([1]; human, human blood plasma/PBS 1:2 v/v, human plasma/PBS 1:2 v/v, 37 °C, 80 μM, 10 min, read-out: % intact compound in plasma after 10 min): 17 ± 1%; remaining at 0.5 h, 80 μM ([1]; human, human blood plasma/PBS 1:2 v/v, human plasma/PBS 1:2 v/v, 37 °C, 80 μM, 30 min, read-out: % intact compound in plasma after 30 min): < 1%
CC[C@H](C)[C@H](NC(=O)[C@H](Cc1ccc(O)cc1)NC(=O)[C@@H]1CCCN1C(=O)[C@H](CCCNC(=N)N)NC(=O)[C@H](CCCNC(=N)N)NC)C(=O)N[C@@H](C[Si](C)(C)C)C(=O)O [compound 15, N ^α-Methyl-Arg-Arg-Pro-Tyr-Ile-β-trimethylsilyl-Ala Tris(hydrotrifluoroacetate)]	moderate proteolytic stability	83 ± 1	80 ± 1	65 ± 1	~50	
CC[C@H](C)[C@H](NC(=O)[C@@H](NC(=O)[C@@H]1CCCN1C(=O)[C@H](CCCNC(=N)N)NC(=O)[C@H](CCCNC(N)=NC(=O)NCCCCNC(=O)c1ccc(-c2c3ccc(=[N+](C)C)cc-3oc3cc(N(C)C)ccc23)c(C(=O)[O-])c1)NC)C(C)(C)c1ccc(O)cc1)C(=O)N[C@@H](C[Si](C)(C)C)C(=O)O [compound 19, N ^α-Methyl-N ^ω-{[4-(N-{1-carboxylato[2-(6-(dimethylamino)-3-(dimethyliminio))-3H-xanthen-9-yl]phen-5-yl}carbonyl)-aminobutyl]aminocarbonyl}Arg-Arg-Pro-β,β-dimethyl-L-Tyr-Ile-β-trimethylsilyl-Ala Tris(hydro-trifluoroacetate)]	high proteolytic stability	> 99	95 ± 2	93 ± 2		half-life ([1]; human blood plasma/PBS 1:2 v/v, human plasma): > 48 h
CC[C@H](C)[C@H](NC(=O)[C@@H](NC(=O)[C@@H]1CCCN1C(=O)[C@H](CCCNC(=N)N)NC(=O)[C@H](CCCNC(=N)NC(=O)NCCCCNC(=O)CCCCCN1\C(=C/C=C/C=C/C2=[N+](CCCCS(=O)(=O)[O-])c3ccccc3C2(C)C)C(C)(C)c2cc(S(=O)(=O)O)ccc21)NC)C(C)(C)c1ccc(O)cc1)C(=O)N[C@@H](C[Si](C)(C)C)C(=O)O [compound 21, N ^α-Methyl-N ^ω-{[4-(N-{6-3H-[2-(5–3H-(1-(4-sulfonatobutyl)-3,3-dimethyl)indol-2-ylidenepent-1,3-dienyl)-3,3-dimethyl-5-sulfo]indol-1-ium-1-yl}hexanoyl)-aminobutyl]aminocarbonyl}Arg-Arg-Pro-β,β-dimethyl-L-Tyr-Ile-β-trimethylsilyl-Ala Tris(hydrotrifluoroacetate)]	high proteolytic stability	97 ± 1	93 ± 1	90 ± 1	90 ± 2	metabolised at 48 h ([1]; human blood plasma/PBS 1:2 v/v, human plasma, 48 h, attributed to adsorption to the vessel, read-out: apparent degradation after 48 h): 10%; half-life ([1]; human plasma): > 48 h
Lys-Lys-Pro-Tyr-Ile-β-trimethylsilyl-Ala (6) (peptide)						pKi [2]: 10.3
RRPYIA (Nα-methyl-Nω-carbamoylated Arg at position 8 with 5-TAMRA attached through the 4-aminobutyl-aminocarbonyl side chain; β,β-dimethyl-L-Tyr at position 11; β-trimethylsilyl-Ala (TMSAla) at position 13, NT(8–13) derivative printed in three-letter code; Tris(hydrotrifluoroacetate) salt; also called UR-FE093; source: synthetic peptide (17a treated with 5-TAMRA succinimidyl ester, preparative RP-HPLC)) [5-TAMRA-labeled NT(8–13) derivative 19]						Ki [3]: 0.78 nM
RRPYIA (Nα-methyl-Nω-carbamoylated Arg at position 8 with sulfo-Cy5 attached through the 4-aminobutyl-aminocarbonyl side chain; β,β-dimethyl-L-Tyr at position 11; β-trimethylsilyl-Ala (TMSAla) at position 13, NT(8–13) derivative printed in three-letter code; Tris(hydrotrifluoroacetate) salt; also called UR-FE094; source: synthetic peptide (17a treated with sulfo-Cy5 succinimidyl ester, preparative RP-HPLC)) [sulfo-Cy5-labeled NT(8–13) derivative 21]						Ki [3]: 0.75 nM

Read-outs that look alike come from different tables or passages of the source.
